Experimental data taken from patent US9138416B2, “Sustained-release nanoparticle compositions and methods using the same” (Board of Regents of the University of Nebraska by and …, priority 2004, dated 2015).

Tested on: vascular smooth muscle cells
Experiment: Cell cycle analysis by flow cytometry of DNA
Conditions: rapamycin 50 ng/mL; two days following treatment

CO[C@H]1C[C@@H]2CC[C@@H](C)[C@@](O)(O2)C(=O)C(=O)N2CCCC[C@H]2C(=O)O[C@H]([C@H](C)C[C@@H]2CC[C@@H](O)[C@H](OC)C2)CC(=O)[C@H](C)/C=C(\C)[C@@H](O)[C@@H](OC)C(=O)[C@H](C)C[C@H](C)/C=C/C=C/C=C/1C [Rapamycin in Solution, rapamycin]
% Apoptosis: 0.06%
percentage of cells in G0/G1 phase: 73.48%
percentage of cells in G2/M: 11.12%
percentage of cells in S phase: 15.41%
